Residue numbers refer to the chain shown, from its start.

T1: human B7-H4 (R&D Systems, cat. no. 6576-B7-50) (human, UniProt Q7Z7D3 29-258, biotinylated in ELISA)
T1 construct: bought; also called hB7-H4
T1 sequence (looked up): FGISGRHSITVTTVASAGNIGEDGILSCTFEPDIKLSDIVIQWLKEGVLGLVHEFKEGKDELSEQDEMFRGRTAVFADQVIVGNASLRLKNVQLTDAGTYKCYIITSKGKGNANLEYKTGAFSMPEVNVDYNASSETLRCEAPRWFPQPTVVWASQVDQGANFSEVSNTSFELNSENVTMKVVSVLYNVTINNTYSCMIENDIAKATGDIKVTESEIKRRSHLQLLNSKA

T2: human B7-H3 Fc Chimera (R&D Systems, cat. no. 1027-B3-100) (human, UniProt Q5ZPR3-2 29-245, biotinylated in ELISA)
T2 construct: bought; also called hB7-H3; not shown: Fc part of the bought Fc chimera, not described
T2 sequence (looked up): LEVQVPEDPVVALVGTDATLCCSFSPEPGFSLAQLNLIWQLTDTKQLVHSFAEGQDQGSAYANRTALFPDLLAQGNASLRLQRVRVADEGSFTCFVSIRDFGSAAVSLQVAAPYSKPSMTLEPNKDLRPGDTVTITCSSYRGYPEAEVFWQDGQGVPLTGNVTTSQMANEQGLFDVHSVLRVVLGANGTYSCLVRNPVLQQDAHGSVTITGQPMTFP

T3: human PD-L2 Fc Chimera (R&D Systems, cat. no. 1224-PL-100) (human, UniProt Q9BQ51 20-219, biotinylated in ELISA)
T3 construct: bought; also called hPD-L2; not shown: Fc part of the bought Fc chimera, not described
T3 sequence (looked up): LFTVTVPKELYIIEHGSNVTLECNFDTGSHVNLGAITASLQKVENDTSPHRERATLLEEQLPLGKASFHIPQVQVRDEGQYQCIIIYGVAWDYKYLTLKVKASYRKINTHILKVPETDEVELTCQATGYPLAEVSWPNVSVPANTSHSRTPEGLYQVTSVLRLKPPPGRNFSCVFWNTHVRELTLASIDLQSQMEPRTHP

B1: Z13112-ABD (designed binder)
chain: AQHDEALEVDAKYAKERNAAAFEILTLPNLTNEQHWAFIWKLDDDPSQSSELLSEAKKLNDSQAPKVDYVLAEAKVLANRELDKYGVSDYYKNLINNAKTVEGVKALIDEILAALPYVPG
notes: domain: GA3
B2: Z13091-ABD (designed binder)
chain: B1 chain with A19N, T26R, E33G, D43A
notes: domain: GA3
B3: Z13154-ABD (designed binder)
chain: B1 chain with A19D, F22Y, T26Q, N32K, E33R, H35V
notes: domain: GA3
B4: Z13165-ABD (designed binder)
chain: B1 chain with A19Y, F22W, T26R, N32A, E33S, H35Y
notes: domain: GA3
B5: Z13115-ABD (designed binder)
chain: B1 chain with A19R, F22S, T26L, N32R, E33M, D43A
notes: domain: GA3
B6: Z13198-ABD (designed binder)
chain: B1 chain with F22Y, E33K, H35R
notes: domain: GA3
B7: Z13304-ABD (designed binder)
chain: B1 chain with A19N, F22S, T26A, N32Q, E33L, H35Y, D43A
notes: domain: GA3
B8: Z13158-ABD (designed binder)
chain: B1 chain with A19D, T26Q, E33S, D43E
notes: domain: GA3
B9: Z13164-ABD (designed binder)
chain: B1 chain with A19N, F22Q, T26Q, N32Q, E33L, H35R
notes: domain: GA3
B10: Z13169-ABD (designed binder)
chain: B1 chain with A19R, F22Q, T26V, N32R, E33K, H35Q
notes: domain: GA3
B11: Z13147-ABD (designed binder)
chain: B1 chain with A19R, F22Y, T26Q, N32H, E33Q, H35T
notes: domain: GA3
B12: Z13186-ABD (designed binder)
chain: B1 chain with A19T, F22L, T26Y, N32K, E33D, H35V
notes: domain: GA3
B13: Z13190-ABD (designed binder)
chain: B1 chain with F22E, T26D, N32A, E33G, H35M
notes: domain: GA3
B14: Z13447-ABD (designed binder)
chain: B1 chain with A19Q, F22Y, L25V, T26Q, N32K, E33G, H35T
notes: domain: GA3
B15: Z13210-ABD (designed binder)
chain: B1 chain with A19R, F22W, T26Q, N32R, E33T, H35W
notes: domain: GA3
B16: Z13368-ABD (designed binder)
chain: B1 chain with F22W, T26R, N32R, E33H, H35Q, D43A
notes: domain: GA3

The first assay has as its target T4, human PD-L1 Fc Chimera (R&D Systems, cat. no. 156-B7-100) (human, UniProt Q9NZQ7 19-239, biotinylated with Sulfo-NHS-LC-Biotin in ELISA and AlphaLISA; not biotinylated in SPR).
T4 construct: bought; also called hPD-L1; biotinylated hPD-L1; not shown: Fc part of the bought Fc chimera, not described
T4 sequence (Q9NZQ7 19-239, change not shown): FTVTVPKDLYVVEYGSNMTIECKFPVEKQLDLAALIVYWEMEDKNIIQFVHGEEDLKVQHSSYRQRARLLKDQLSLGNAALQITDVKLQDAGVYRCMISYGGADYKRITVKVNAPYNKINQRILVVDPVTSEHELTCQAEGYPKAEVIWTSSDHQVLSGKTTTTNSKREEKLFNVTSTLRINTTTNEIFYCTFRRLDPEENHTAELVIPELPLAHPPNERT
The experiment in a line: ELISA titration, captured Z-ABD. The protocol: Half-area 96-well ELISA plates (Costar, cat. no. 3690) were coated at 4° C. overnight with 2 μg/ml of an anti-ABD goat antibody (produced in-house) diluted in coating buffer (50 mM sodium carbonate, pH 9.6; Sigma, cat. no. C3041). The antibody solution was poured off and the wells were washed in water and blocked with 100 μl of PBSC (PBS supplemented with 0.5% casein; Sigma, cat. no. C8654) for 1 to 3 h at RT. The blocking solution was discarded and 50 μl periplasmic solutions, diluted 1:1 with PBST 0.05%, were added to the wells and incubated for 1.5 to 2.5 h at RT under slow agitation. As a blank control, PBST 0.05% was added instead of a periplasmic sample. The supernatants were poured off and the wells were washed 4 times with PBST 0.05%. […] The plates were incubated for 1 h at RT followed by washes as described above. Streptavidin conjugated HRP (Thermo Scientific, cat. no. N100) diluted 1:30,000 in PBSC, was added to the wells and the plates were incubated for approximately 1 h. After washing as described above, 50 μl ImmunoPure TMB substrate (Thermo Scientific, cat. no. 34021) was added to the wells and the plates were treated according to the manufacturer's recommendations.
Take B1: the EC50 – broadly, the concentration giving half of the maximal effect – was determined as 0.22 nM.

In the case of B2, the EC50 was 0.22 nM. In other words, the sub-nanomolar range.

For B3, the EC50 is 0.11 nM.

In turn, B4 yielded a 50% effective concentration (EC50) of 0.24 nM.

B5 registered an EC50 of 0.4 nM.

Take B6: the response was half-maximal at 0.16 nM (EC50).

The molecule B7 registered an EC50 of 0.32 nM. This EC50 lies about 2-fold higher than the previous one.

As for B8, the concentration for a half-maximal effect (EC50) is 0.25 nM. The EC50 values of the last two molecules are within 1.5-fold of each other.

As for B9, a half-maximal response (EC50) required 0.22 nM. The EC50 values of the last two molecules are within 1.5-fold of each other.

For the molecule B10, the EC50 was determined as 0.15 nM.

The target in a further assay is T1, human B7-H4 (R&D Systems, cat. no. …). The experiment in a line: ELISA. (In an ELISA, binding on a coated surface is turned into a signal by an enzyme label.)
Take B1: the binding result is on record as “no binding (tested: 8 nM)”.

Consider B11, for which the binding result was “no binding (tested: 8 nM)”.

With B12, the binding result is “no binding (tested: 8 nM)”.

For the molecule B13, the binding result is “no binding (tested: 8 nM)”.

As to B2, the binding result is “no binding (tested: 8 nM)”.

For B3, the binding result is listed as “no binding (tested: 8 nM)”.

Turning to B14, the binding result is “no binding (tested: 8 nM)”.

For the molecule B15, the binding result is on record as “no binding (tested: 8 nM)”.

As for B16, the binding result is given as “no binding (tested: 8 nM)”.

On to B5, for which the binding result is “no binding (tested: 8 nM)”.

Regarding B6, the binding result was “no binding (tested: 8 nM)”.

Regarding B7, the binding result was “no binding (tested: 8 nM)”.

Turning to B8, the binding result is “no binding (tested: 8 nM)”.

Turning to B9, the binding result is recorded as “no binding (tested: 8 nM)”.

As for B10, the binding result is recorded as “no binding (tested: 8 nM)”.

In the next assay the target is T2, human B7-H3 Fc Chimera (R&D Systems, …). The experiment in a line: ELISA.
Regarding B1, the binding result is “no binding (tested: 8 nM)”.

On to B11, for which the binding result is reported as “no binding (tested: 8 nM)”.

On to B12, for which the binding result is on record as “no binding (tested: 8 nM)”.

Turning to B13, the binding result is listed as “no binding (tested: 8 nM)”.

Consider B2, for which the binding result is reported as “no binding (tested: 8 nM)”.

With B3, the binding result is reported as “no binding (tested: 8 nM)”.

Turning to B14, the binding result is on record as “no binding (tested: 8 nM)”.

For B4, the binding result is given as “no binding (tested: 8 nM)”.

For B15, the binding result was “no binding (tested: 8 nM)”.

Take B16: the binding result is “no binding (tested: 8 nM)”.

B5: the binding result is “no binding (tested: 8 nM)”.

With B6, the binding result was “no binding (tested: 8 nM)”.

As to B7, the binding result is given as “no binding (tested: 8 nM)”.

B8: the binding result is “no binding (tested: 8 nM)”.

In the case of B9, the binding result is “no binding (tested: 8 nM)”.

Take B10: the binding result is “no binding (tested: 8 nM)”.

Another assay deals with T3, human PD-L2 Fc Chimera (R&D Systems, …). The experiment in a line: ELISA.
Consider B1, for which the binding result was “no binding (tested: 8 nM)”.

Consider B11, for which the binding result is on record as “no binding (tested: 8 nM)”.

On to B12, for which the binding result is “no binding (tested: 8 nM)”.

Turning to B13, the binding result was “no binding (tested: 8 nM)”.

With B2, the binding result was “no binding (tested: 8 nM)”.

On to B3, for which the binding result is “no binding (tested: 8 nM)”.

For B14, the binding result is given as “no binding (tested: 8 nM)”.

B4: the binding result is recorded as “no binding (tested: 8 nM)”.

Take B15: the binding result was “no binding (tested: 8 nM)”.

As to B16, the binding result is “no binding (tested: 8 nM)”.

As to B5, the binding result was “no binding (tested: 8 nM)”.

On to B6, for which the binding result is recorded as “no binding (tested: 8 nM)”.

For the molecule B7, the binding result is listed as “no binding (tested: 8 nM)”.

B8: the binding result is listed as “no binding (tested: 8 nM)”.

As to B9, the binding result is “no binding (tested: 8 nM)”.

Consider B10, for which the binding result is given as “no binding (tested: 8 nM)”.

The target in a further assay is T4, human PD-L1 Fc Chimera (R&D Systems, …). The experiment in a line: ELISA titration, captured Z-ABD. This is another data set of the same source.
As for B2, a half-maximal response (EC50) required 0.12 nM.

For the origin of these results see US20180312565A1 (Affibody, published 2018).
